Laboratory results as given in the supplement of paper PMC8728848.
Some of the results follow.

Legend:
Experiment in all cases: glycan array binding signal (z-score within array); higher = stronger binding
Settings in all cases: glycan notation: IUPAC condensed, linker removed
[1] = biological target: Gal(b1-4)GlcNAc(b1-3)Gal(b1-4)GlcNAc(b1-3)[Gal(b1-4)GlcNAc(b1-3)Gal(b1-4)GlcNAc(b1-6)]GalNAc
Procedure, shortened: (§1)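 Glycan array binding is given as a within-array Z-score, which can be read as non-binding when negative. The arrays, 3228 of them, came from the Consortium for Functional Glycomics database and were retained only where the protein sequence was available. Z-scores were averaged across arrays of the same protein sequence at different concentrations or buffers and across linkers.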

[2] = biological target: Gal(b1-4)GlcNAc(b1-3)Gal(b1-4)GlcNAc(b1-6)[Gal(b1-3)]GalNAc
Procedure, shortened: as §1

[3] = biological target: Gal(b1-4)GlcNAc(b1-3)Gal(b1-4)[Fuc(a1-3)]GlcNAc(b1-3)Gal(b1-4)[Fuc(a1-3)]GlcNAc
Procedure, shortened: as §1

[4] = biological target: Gal(b1-4)GlcNAc(b1-3)GalNAc
Procedure, shortened: as §1

[5] = biological target: Gal(b1-4)GlcNAc(b1-3)[Fuc(a1-3)GlcNAc(b1-6)]Gal(b1-4)Glc
Procedure, shortened: as §1

[6] = biological target: Gal(b1-4)GlcNAc(b1-3)[Gal(b1-4)GlcNAc(b1-6)]Gal(b1-4)GlcNAc
Procedure, shortened: as §1

[7] = biological target: Gal(b1-4)GlcNAc(b1-3)[GlcNAc(b1-6)]Gal(b1-4)GlcNAc
Procedure, shortened: as §1

[8] = biological target: Gal(b1-4)GlcNAc(b1-6)Gal(b1-4)GlcNAc
Procedure, shortened: as §1

[9] = biological target: Gal(b1-4)GlcNAc(b1-6)GalNAc
Procedure, shortened: as §1

[10] = biological target: Gal(b1-4)GlcNAc(b1-6)[Gal(b1-3)]GalNAc
Procedure, shortened: as §1

[11] = biological target: Gal(b1-4)GlcNAc(b1-6)[Gal(b1-4)GlcNAc(b1-3)]GalNAc
Procedure, shortened: as §1

Gal(b1-4)GlcNAc6P = biological target: Gal(b1-4)GlcNAc6P
Procedure, shortened: as §1

Gal(b1-6)Gal = biological target: Gal(b1-6)Gal
Procedure, shortened: as §1

Gal3S(b1-3)GalNAc = biological target: Gal3S(b1-3)GalNAc
Procedure, shortened: as §1

Gal3S(b1-3)GlcNAc = biological target: Gal3S(b1-3)GlcNAc
Procedure, shortened: as §1

[12] = biological target: Gal3S(b1-3)[Fuc(a1-4)]GlcNAc
Procedure, shortened: as §1

Gal3S(b1-4)Glc = biological target: Gal3S(b1-4)Glc
Procedure, shortened: as §1

Gal3S(b1-4)Glc6S = biological target: Gal3S(b1-4)Glc6S
Procedure, shortened: as §1

Gal3S(b1-4)GlcNAc = biological target: Gal3S(b1-4)GlcNAc
Procedure, shortened: as §1

[13] = biological target: Gal3S(b1-4)[Fuc(a1-3)]Glc6S
Procedure, shortened: as §1

[14] = biological target: Gal3S(b1-4)[Fuc(a1-3)]GlcNAc
Procedure, shortened: as §1

[15] = biological target: Gal3S(b1-4)[Fuc(a1-3)]GlcNAc6S
Procedure, shortened: as §1

Gal3S4S(b1-4)GlcNAc = biological target: Gal3S4S(b1-4)GlcNAc
Procedure, shortened: as §1

Gal3S6S(b1-4)GlcNAc = biological target: Gal3S6S(b1-4)GlcNAc
Procedure, shortened: as §1

Gal3S6S(b1-4)GlcNAc6S = biological target: Gal3S6S(b1-4)GlcNAc6S
Procedure, shortened: as §1

Gal4S(b1-4)GlcNAc = biological target: Gal4S(b1-4)GlcNAc
Procedure, shortened: as §1

Gal4S6S(b1-4)GlcNAc = biological target: Gal4S6S(b1-4)GlcNAc
Procedure, shortened: as §1

Gal6P(b1-4)GlcNAc = biological target: Gal6P(b1-4)GlcNAc
Procedure, shortened: as §1

Gal6S(b1-3)GlcNAc = biological target: Gal6S(b1-3)GlcNAc
Procedure, shortened: as §1

Gal6S(b1-3)GlcNAc6S = biological target: Gal6S(b1-3)GlcNAc6S
Procedure, shortened: as §1

Gal6S(b1-4)Glc = biological target: Gal6S(b1-4)Glc
Procedure, shortened: as §1

Gal6S(b1-4)Glc6S = biological target: Gal6S(b1-4)Glc6S
Procedure, shortened: as §1

Gal6S(b1-4)GlcNAc = biological target: Gal6S(b1-4)GlcNAc
Procedure, shortened: as §1

Gal6S(b1-4)GlcNAc6S = biological target: Gal6S(b1-4)GlcNAc6S
Procedure, shortened: as §1

GalNAc(a1-3)Gal = biological target: GalNAc(a1-3)Gal
Procedure, shortened: as §1

GalNAc(a1-3)GalNAc = biological target: GalNAc(a1-3)GalNAc
Procedure, shortened: as §1

[16] = biological target: GalNAc(a1-3)GalNAc(b1-3)Gal(a1-4)Gal(b1-4)Glc
Procedure, shortened: as §1

[17] = biological target: GalNAc(a1-3)GalNAc(b1-3)Gal(a1-4)Gal(b1-4)GlcNAc
Procedure, shortened: as §1

GalNAc(b1-3)Gal = biological target: GalNAc(b1-3)Gal
Procedure, shortened: as §1

[18] = biological target: GalNAc(b1-3)Gal(a1-4)Gal(b1-4)GlcNAc
Procedure, shortened: as §1

[19] = biological target: GalNAc(b1-3)Gal(a1-4)Gal(b1-4)GlcNAc(b1-3)Gal(b1-4)Glc
Procedure, shortened: as §1

[20] = biological target: GalNAc(b1-3)Gal(a1-6)Gal(b1-4)Glc
Procedure, shortened: as §1

GalNAc(b1-3)GalNAc = biological target: GalNAc(b1-3)GalNAc
Procedure, shortened: as §1

GalNAc(b1-3)GlcNAc = biological target: GalNAc(b1-3)GlcNAc
Procedure, shortened: as §1

GalNAc(b1-4)Gal(b1-4)Glc = biological target: GalNAc(b1-4)Gal(b1-4)Glc
Procedure, shortened: as §1

Measured: glycan array binding signal (z-score)

B1: Banana lectin (Musa acuminata) (protein)
chain: MNGAIKVGAWGGNGGSAFDMGPAYRIISVKIFSGDVVDAVDVTFTYYGKTETRHFGGSGGTPHEIVLQEGEYLVGMKGEFGNYHGVVVVGKLGFSTNKKSYGPFGNTGGTPFSLPIAAGKISGFFGRGGDFIDAIGVYLEP
-0.188: [13]
-0.186: [1]
-0.197: Gal3S4S(b1-4)GlcNAc | Gal6S(b1-4)GlcNAc6S
-0.17: GalNAc(b1-3)Gal
-0.187: [7]
-0.189: GalNAc(b1-3)GlcNAc
-0.196: Gal(b1-4)GlcNAc6P | [19]
-0.194: [6] | Gal(b1-6)Gal | Gal6S(b1-4)Glc6S | [16] | [20]
-0.19: [12] | Gal3S(b1-4)Glc | [14]
-0.192: [4] | [9] | Gal3S(b1-4)Glc6S | Gal3S(b1-4)GlcNAc | [15] | Gal3S6S(b1-4)GlcNAc | GalNAc(b1-3)GalNAc
-0.175: [3]
-0.193: [5] | [10] | Gal3S6S(b1-4)GlcNAc6S | Gal6S(b1-4)Glc | GalNAc(a1-3)GalNAc | [17] | [18]
-0.191: [2] | [11] | Gal3S(b1-3)GalNAc | Gal3S(b1-3)GlcNAc | Gal6P(b1-4)GlcNAc | Gal6S(b1-4)GlcNAc
-0.195: [8] | Gal4S(b1-4)GlcNAc | Gal4S6S(b1-4)GlcNAc | Gal6S(b1-3)GlcNAc | Gal6S(b1-3)GlcNAc6S | GalNAc(a1-3)Gal | GalNAc(b1-4)Gal(b1-4)Glc
